According to the supplement of paper PMC3334620:
The full ranking holds about 33,000 sequences; the median of “E-score (-0.5 to 0.5)” is about -0.04, and the highest 2% start at about 0.36. Some of the results follow.

Molecular target: T1, Hmlalpha2 (UniProt P0CY09)
T1 sequence: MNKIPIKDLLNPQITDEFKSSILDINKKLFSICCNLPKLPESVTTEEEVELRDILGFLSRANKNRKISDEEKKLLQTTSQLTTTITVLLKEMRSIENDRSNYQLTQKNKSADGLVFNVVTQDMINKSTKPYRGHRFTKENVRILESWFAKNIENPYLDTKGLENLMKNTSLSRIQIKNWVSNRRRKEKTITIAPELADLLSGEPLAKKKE
Assay: PBM E-score (8-mer binding enrichment) (E-score (-0.5 to 0.5)); higher = stronger / more preferred TF binding; most listed sequences are background and not binding sites
Details: protein concentration: 200 nM; construct: GST-full length
In short: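 Full-length yeast transcription factors or their DNA-binding domains, GST-tagged and expressed with PURExpress, were applied at about 100-200 nM to universal all-10-mer Agilent arrays. These arrays had been made double-stranded by primer extension on fresh or once-stripped slides. Detection used fluorescent anti-GST, normalisation used masliner, and E-scores for ungapped eight-base words pooled with reverse complements came from the Universal PBM Analysis Suite.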

| Sequence | PBM E-score |
| --- | --- |
| CTTTTCCC | -0.0258 |
| AAAGTAAA | 0.174 |
| CGGTGAAA | 0.0361 |
| AAGAAGAT | -0.0289 |
| GGGGCACC | -0.263 |
| ATACAATG | 0.171 |
| AATGGGAA | -0.194 |
| AACATGGC | 0.406 |
| AAACCTCA | 0.0137 |
| AAACGACC | -0.0775 |
| ATTGTGGC | -0.0619 |
| GCATGAGC | -0.0934 |
| CGTCCAGC | -0.0879 |
| ACACAGGA | 0.284 |
| CCGTAGTC | -0.282 |
| GAGCTGGC | -0.112 |
| GAATGAGC | -0.0545 |
| GAGGACGC | -0.208 |
| AACCCTAG | 0.0776 |
| TGTCGCAA | 0.088 |
| GTCCGATA | -0.161 |
| CACGGACC | -0.0468 |
| AAAACAGC | 0.0366 |
| CACCCCCC | -0.262 |
| CCCCGGTA | -0.255 |

| Sequence | PBM E-score |
| --- | --- |
| ACGGAGTC | -0.138 |
| ATATCCGA | -0.0397 |
| AGTATCCG | -0.0438 |
| CCCTGGGC | -0.302 |
| AGGTACTA | 0.102 |
| CAAACTTC | 0.127 |
| CCCCCCCC | -0.403 |
| CCGGGGCC | -0.385 |
| TCGAGACA | -0.0896 |
| ATTCCTGA | -0.0807 |
| AAATGACA | 0.0996 |
| CGCGGAGA | 0.00486 |
| CTGCTACA | 0.207 |
| CCGTGTCA | 0.351 |
| TCGACTAA | 0.0638 |
| AAGGATCG | 0.0461 |
| CAAGGAGC | -0.0695 |
| CCCACAAG | -0.186 |
| AATTAATG | 0.147 |
| CATGACTA | 0.0356 |
| ACCTATCC | -0.144 |
| ACTTGTGG | -0.0568 |
| CACTTAGC | -0.143 |
| CCTGTTCA | -0.0193 |
| AAATTTTC | -0.233 |

| Sequence | PBM E-score |
| --- | --- |
| ATAATAGC | -0.036 |
| CAACGCAC | 0.17 |
| CTAGTCTC | -0.13 |
| TACACGTA | 0.428 |
| AATGAGGT | 0.0115 |
| CGTCATCA | -0.0179 |
| CCCTACAC | 0.247 |
| CTGTGAGC | 0.0267 |
| GGAGGATA | -0.087 |
| ATTTCTGG | 0.0188 |
| ATCTCGAA | -0.0321 |
| AGCAGGCC | -0.0862 |
| AATAGTCA | -0.0249 |
| AACGTCTC | 0.0704 |
| CTACGCTA | -0.0737 |
| ATTTAAGG | -0.144 |
| TGAGGGAA | -0.126 |
| AATCATGG | 0.0457 |
| ATCTCCGG | -0.202 |
| ATTAATAA | 0.212 |
| AACGAGCA | 0.118 |
| ATCCTATG | -0.116 |
| GCTCCAAA | -0.0984 |
| CATGGTAC | 0.0805 |
| GGATGGGA | -0.134 |

| Sequence | PBM E-score |
| --- | --- |
| AGGTCCTA | -0.241 |
| GCTTGGTA | 0.123 |
| AAGAACGA | -0.0521 |
| CTGATCAC | -0.105 |
| CACTTCTA | -0.0114 |
| AAAGGCTG | -0.1 |
| CATCGGGG | -0.209 |
| ACGTCAGG | -0.124 |
| TCGGTACA | 0.154 |
| CGCACTTA | -0.0398 |
| AAAAGCCA | -0.0535 |
| TAGTACAA | 0.244 |
| CCCGCAGG | -0.0462 |
| CCCGTGAG | -0.193 |
| TGATCCCA | -0.134 |
| GCTTTGAA | 0.0448 |
| ATGTAGTC | 0.37 |
| CGGAGTAC | -0.126 |
| GGTAACCA | -0.00348 |
| CACTACAG | 0.126 |
| CAGATGCC | -0.21 |
| CCATTCAG | -0.187 |
| CGCGGGCC | -0.163 |
| GACGGGGA | -0.268 |
| ATTGTGGA | 0.00701 |

| Sequence | PBM E-score |
| --- | --- |
| CGTGGAAC | -0.121 |
| ACGTGAAC | 0.116 |
| GATGTTAA | 0.383 |
| AATCAATC | 0.107 |
| CTCCGTTA | -0.0425 |
| ACAGATAA | 0.0265 |
| AGCGTACC | -0.23 |
| TCGCCTCA | -0.118 |
| GTATGCGA | 0.138 |
| CCCGAATC | -0.286 |
| TCCCAGAA | -0.207 |
| TCTCTCCA | -0.206 |
| ACACTGTA | 0.116 |
| CCTTACTA | 0.0121 |
| ATATTCGA | -0.166 |
| ATTATTTA | 0.272 |
| AAGCGCAG | -0.101 |
| ACGTGTAA | 0.482 |
| CAAGGACC | -0.0531 |
| AGGCGGGG | -0.0978 |
| CATTACCA | 0.0553 |
| ATCCTCCC | -0.258 |
| AAATGCCA | -0.269 |
| CCGTGCAC | -0.176 |
| GGCGCGAC | -0.0499 |

| Sequence | PBM E-score |
| --- | --- |
| AGAAAGTA | 0.227 |
| CCTCCCCC | -0.415 |
| GTGCTCAA | 0.197 |
| AGTGCCCC | -0.347 |
| CATCGAGG | -0.124 |
| ACCCACTA | 0.0139 |
| ATCATGAT | 0.202 |
| CGCCATTC | -0.284 |
| ACGTGAAA | 0.216 |
| TAGGGTAA | 0.0367 |
| AAGGCACA | 0.0471 |
| ACGTCAAG | 0.0653 |
| GGTCATAA | -0.0587 |
| CCTACCCC | -0.417 |
| AACAGTGG | -0.0879 |
| ATCTTTCG | -0.143 |
| GATAGTAC | 0.101 |
| CTGCCGAC | -0.232 |
| AAATCAGA | 0.0685 |
| ACATAAAA | 0.228 |
| CCCCGGAA | -0.168 |
| CAACCTGG | -0.0248 |
| ACGTCGAT | 0.207 |
| ACTAACTC | 0.0701 |
| ATTCTCCA | -0.0753 |

| Sequence | PBM E-score |
| --- | --- |
| AGACGGGA | -0.184 |
| ACTTGTCT | 0.117 |
| CCACGCCC | -0.323 |
| CCCCCACA | -0.289 |
| ACAGACAT | 0.182 |
| ACGTTTGC | 0.046 |
| GTCTTTCA | -0.169 |
| ACCAATCA | -0.0195 |
| AGGGCCCG | -0.267 |
| TACCATGA | -0.122 |
| CTGATAAG | 0.00466 |
| ACACTTTA | 0.22 |
| CCGTCATA | -0.135 |
| CAATTAGC | -0.0608 |
| AAGCGGAC | -0.209 |
| GACCGCGC | -0.197 |
| ATCGGGAG | -0.238 |
| AACCGCTT | -0.0491 |
| ATTCGCTG | -0.051 |
| CGAGAAAC | -0.0161 |
| GCGAAGTA | 0.0525 |
| ACCGGGGC | -0.283 |
